M. abscessus ATCC 19977 and its deletion, point and complemented mutants after 5 days of drug at 37 °C plus 24 h of resazurin. Growth in % of untreated wells at the dose given (lower = more inhibition); checkerboards give % inhibition (higher = more inhibition); IC50 from the fitted curve (lower = more potent). No active / inactive call. IC50 values come from the same 384-well curves. Growth is not capped and can exceed 100%. The direction of the checkerboard scale is read from the raw signals. Capreomycin is a mixture.
Assays:
Test in all cases: growth relative to untreated wells; higher = more growth (less inhibition)
[1] = system: Mycobacterium abscessus ATCC 19977 Eis2 E120fs
Protocol: (§1)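 384-well two-fold dose series, two replicates; 5 days at 37 °C, then 24 h with resazurin; fluorescence scaled to growth and killed controls.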

[2] = system: Mycobacterium abscessus ATCC 19977 Eis2 T258R
Protocol: as §1

[3] = system: Mycobacterium abscessus ATCC 19977 Eis2 Y227D
Protocol: as §1

[4] = system: Mycobacterium abscessus ATCC 19977 Eis2 Y255*
Protocol: as §1

[5] = system: Mycobacterium abscessus ATCC 19977 Eis2 Y284*
Protocol: as §1

[6] = system: Mycobacterium abscessus ATCC 19977 WhiB7 A51T
Protocol: as §1

[7] = system: Mycobacterium abscessus ATCC 19977 WhiB7 F24fs
Protocol: as §1

[8] = system: Mycobacterium abscessus ATCC 19977 WhiB7 L37P
Protocol: as §1

[9] = system: Mycobacterium abscessus ATCC 19977 WhiB7 R76del
Protocol: as §1

[10] = system: Mycobacterium abscessus ATCC 19977 WhiB7 T70fs
Protocol: as §1

[11] = system: Mycobacterium abscessus ATCC 19977 Δeis2
Protocol: as §1

[12] = system: Mycobacterium abscessus ATCC 19977 ΔwhiB7
Protocol: as §1

[13] = system: Mycobacterium abscessus ATCC 19977
Protocol: as §1

CC(C)/N=c1\cc2n(-c3ccc(Cl)cc3)c3ccccc3nc-2cc1Nc1ccc(Cl)cc1 [clofazimine]
Conditions	growth [%]
[1], 0.0078125 µg/mL	101.16
[1], 0.015625 µg/mL	107
[1], 0.03125 µg/mL	94.7
[1], 0.0625 µg/mL	104
[1], 0.125 µg/mL	102
[1], 0.25 µg/mL	102
[1], 0.5 µg/mL	8.92
[1], 1 µg/mL	-3.94
[1], 2 µg/mL	-4.23
[1], 4 µg/mL	-3.13
[1], 8 µg/mL	-1.07
[1], 16 µg/mL	-2.07
[2], 0.0078125 µg/mL	87.4
[2], 0.015625 µg/mL	84.5
[2], 0.03125 µg/mL	92
[2], 0.0625 µg/mL	91.1
[2], 0.125 µg/mL	90.8
[2], 0.25 µg/mL	95.6
[2], 0.5 µg/mL	4.45
[2], 1 µg/mL	-4.67
[2], 2 µg/mL	-3.33
[2], 4 µg/mL	-2.57
[2], 8 µg/mL	-1.35
[2], 16 µg/mL	-3.45
[3], 0.0078125 µg/mL	99.7
[3], 0.015625 µg/mL	112
[3], 0.03125 µg/mL	95
[3], 0.0625 µg/mL	99.1
[3], 0.125 µg/mL	96.3
[3], 0.25 µg/mL	64.2
[3], 0.5 µg/mL	-0.878
[3], 1 µg/mL	-2.75
[3], 2 µg/mL	-2.66
[3], 4 µg/mL	-2.2
[3], 8 µg/mL	0.0453
[3], 16 µg/mL	-1.25
[4], 0.0078125 µg/mL	94.1
[4], 0.015625 µg/mL	97.7
[4], 0.03125 µg/mL	87.8
[4], 0.0625 µg/mL	100
[4], 0.125 µg/mL	88.3
[4], 0.25 µg/mL	35.4
[4], 0.5 µg/mL	18.8
[4], 1 µg/mL	-5.41
[4], 2 µg/mL	-5.79
[4], 4 µg/mL	-2.67
[4], 8 µg/mL	-3.34
[4], 16 µg/mL	-6.81
[5], 0.0078125 µg/mL	90.93
[5], 0.015625 µg/mL	95.5
[5], 0.03125 µg/mL	90
[5], 0.0625 µg/mL	93.6
[5], 0.125 µg/mL	94.9
[5], 0.25 µg/mL	57.9
[5], 0.5 µg/mL	2.17
[5], 1 µg/mL	-4.28
[5], 2 µg/mL	-4.17
[5], 4 µg/mL	-2.54
[5], 8 µg/mL	-3.68
[5], 16 µg/mL	-4.11
[6], 0.0078125 µg/mL	89.9
[6], 0.015625 µg/mL	93.8
[6], 0.03125 µg/mL	92.4
[6], 0.0625 µg/mL	99.5
[6], 0.125 µg/mL	94.2
[6], 0.25 µg/mL	60.8
[6], 0.5 µg/mL	-2.12
[6], 1 µg/mL	-4.33
[6], 2 µg/mL	0.791
[6], 4 µg/mL	-3.15
[6], 8 µg/mL	33.7
[6], 16 µg/mL	-1.64
[7], 0.0078125 µg/mL	99.2
[7], 0.015625 µg/mL	95.1
[7], 0.03125 µg/mL	91.313
[7], 0.0625 µg/mL	96.2
[7], 0.125 µg/mL	97.8
[7], 0.25 µg/mL	104
[7], 0.5 µg/mL	0.767
[7], 1 µg/mL	-3.9
[7], 2 µg/mL	-3.74
[7], 4 µg/mL	3.27
[7], 8 µg/mL	-3.32
[7], 16 µg/mL	-0.545
[8], 0.0078125 µg/mL	99.6
[8], 0.015625 µg/mL	92.4
[8], 0.03125 µg/mL	93.98
[8], 0.0625 µg/mL	91.3
[8], 0.125 µg/mL	98.7
[8], 0.25 µg/mL	41.3
[8], 0.5 µg/mL	-2.21
[8], 1 µg/mL	-5.29
[8], 2 µg/mL	-4.31
[8], 4 µg/mL	1.9
[8], 8 µg/mL	-3.79
[8], 16 µg/mL	-0.575
[9], 0.0078125 µg/mL	95.5
[9], 0.015625 µg/mL	100.8
[9], 0.03125 µg/mL	91.6
[9], 0.0625 µg/mL	97
[9], 0.125 µg/mL	88.8
[9], 0.25 µg/mL	96
[9], 0.5 µg/mL	-2.01
[9], 1 µg/mL	-4.01
[9], 2 µg/mL	-0.766
[9], 4 µg/mL	-3.21
[9], 8 µg/mL	-1.6
[9], 16 µg/mL	-4.55
[10], 0.0078125 µg/mL	91.3
[10], 0.015625 µg/mL	96.8
[10], 0.03125 µg/mL	96.9
[10], 0.0625 µg/mL	95.5
[10], 0.125 µg/mL	94.9
[10], 0.25 µg/mL	42.8
[10], 0.5 µg/mL	7.68
[10], 1 µg/mL	-6.35
[10], 2 µg/mL	-3.71
[10], 4 µg/mL	-3.09
[10], 8 µg/mL	-4.48
[10], 16 µg/mL	-5.31
[11], 0.0078125 µg/mL	95.91
[11], 0.015625 µg/mL	94.4
[11], 0.03125 µg/mL	91.27
[11], 0.0625 µg/mL	93.3
[11], 0.125 µg/mL	102
[11], 0.25 µg/mL	18.5
[11], 0.5 µg/mL	13.5
[11], 1 µg/mL	-5.1
[11], 2 µg/mL	-0.0564
[11], 4 µg/mL	5.39
[11], 8 µg/mL	-2.81
[11], 16 µg/mL	-4.08
[12], 0.0078125 µg/mL	86.7
[12], 0.015625 µg/mL	94.5
[12], 0.03125 µg/mL	90.3
[12], 0.0625 µg/mL	89.4
[12], 0.125 µg/mL	85.9
[12], 0.25 µg/mL	57.6
[12], 0.5 µg/mL	19.4
[12], 1 µg/mL	-7.09
[12], 2 µg/mL	-5.71
[12], 4 µg/mL	22.7
[12], 8 µg/mL	-4.47
[12], 16 µg/mL	4.44
[13], 0.0078125 µg/mL	92.5
[13], 0.015625 µg/mL	98.88
[13], 0.03125 µg/mL	94.6
[13], 0.0625 µg/mL	94.04
[13], 0.125 µg/mL	92.1
[13], 0.25 µg/mL	65.2
[13], 0.5 µg/mL	-1.13
[13], 1 µg/mL	-3.73
[13], 2 µg/mL	-4.12
[13], 4 µg/mL	1.01
[13], 8 µg/mL	0.78
[13], 16 µg/mL	2.71

From the supplement of paper PMC12578646, “Prodrug florfenicol amine is activated by intrinsic resistance to target Mycobacterium abscessus” (Nature Microbiology, 2025)
